Data: publication PMC4336329 (PLoS ONE, 2015)
Hit rate of the full screen: of about 310,000 compounds, about 2,200 (0.71%) showed an effect of 50% or more. Effects have a minus sign here. This is one part of the list.

biological target: human ether-à-go-go-related gene (hERG) potassium channel (human, UniProt Q12809); test: primary screen, population patch clamp on CHO cells stably expressing hERG
Sequence (Q12809 whole entry, looked up): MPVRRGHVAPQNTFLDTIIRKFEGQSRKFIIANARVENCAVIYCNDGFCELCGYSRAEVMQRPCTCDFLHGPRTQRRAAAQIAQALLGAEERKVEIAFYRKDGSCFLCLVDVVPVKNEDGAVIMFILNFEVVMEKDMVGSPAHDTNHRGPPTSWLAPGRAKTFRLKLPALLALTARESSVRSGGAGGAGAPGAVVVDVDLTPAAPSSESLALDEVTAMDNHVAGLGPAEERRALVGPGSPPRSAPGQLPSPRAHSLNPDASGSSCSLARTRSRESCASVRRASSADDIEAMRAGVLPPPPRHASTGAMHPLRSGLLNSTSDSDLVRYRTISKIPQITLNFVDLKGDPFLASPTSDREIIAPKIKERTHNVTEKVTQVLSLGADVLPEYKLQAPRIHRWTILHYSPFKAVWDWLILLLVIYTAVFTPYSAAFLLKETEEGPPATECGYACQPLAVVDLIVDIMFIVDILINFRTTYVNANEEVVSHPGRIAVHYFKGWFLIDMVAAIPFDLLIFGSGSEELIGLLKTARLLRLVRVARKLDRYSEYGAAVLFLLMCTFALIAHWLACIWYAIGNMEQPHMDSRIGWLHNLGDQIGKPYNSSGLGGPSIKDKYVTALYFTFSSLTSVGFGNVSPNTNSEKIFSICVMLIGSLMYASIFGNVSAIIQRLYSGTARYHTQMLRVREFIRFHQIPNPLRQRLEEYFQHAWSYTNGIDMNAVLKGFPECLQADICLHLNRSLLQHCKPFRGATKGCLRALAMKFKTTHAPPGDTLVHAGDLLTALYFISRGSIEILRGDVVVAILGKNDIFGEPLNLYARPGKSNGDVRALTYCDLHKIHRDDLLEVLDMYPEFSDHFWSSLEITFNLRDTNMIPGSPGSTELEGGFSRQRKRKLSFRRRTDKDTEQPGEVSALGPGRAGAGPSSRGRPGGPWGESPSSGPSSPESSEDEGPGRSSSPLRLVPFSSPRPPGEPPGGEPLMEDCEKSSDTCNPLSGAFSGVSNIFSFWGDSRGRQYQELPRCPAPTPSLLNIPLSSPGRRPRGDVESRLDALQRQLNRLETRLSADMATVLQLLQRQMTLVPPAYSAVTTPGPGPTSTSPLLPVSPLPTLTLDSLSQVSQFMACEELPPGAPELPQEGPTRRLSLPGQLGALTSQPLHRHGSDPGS

| Compound | hERG current change (%, negative = inhibition) at 1uM [%] |
| --- | --- |
| CCc1nnc(NC(=O)CCCSc2nc3ccccc3[nH]2)s1 | 10.1 |
| COc1ccc2nc(NC(=O)Nc3ccccc3OC)sc2c1 | 11.4 |
| O=C(Nc1ccccn1)C1CCCN1S(=O)(=O)c1ccc(Cl)cc1 (centres unmarked) | 7.12 |
| CN(C)C(CNC(=O)CCc1c[nH]c2ccccc12)c1ccccc1 (centres unmarked) | 2.5 |
| COc1cccc(OCC(O)CN2CCC(C)CC2)c1.Cl (centres unmarked) | 3.42 |
| O=C(CCc1nc2ccccc2c(=O)[nH]1)N1CCN(S(=O)(=O)c2cccc([N+](=O)[O-])c2)CC1 | 10.7 |
| CN(C)c1ccc(NC(=O)c2cnsn2)cc1 | 20.3 |
| CN=C1S/C(=C\c2ccc(N3CCOCC3)c(F)c2)C(=O)N1C | 14.3 |
| Cc1nnsc1-c1nnc(SCC(=O)c2ccc(C#N)cc2)n1C1CC1 | 6.93 |
| CCCCOc1ccccc1P(=O)(O)CP(=O)(c1ccccc1)c1ccccc1 | 11 |
| Clc1ccc(CNc2ccc(N3CCN(Cc4ccccc4)CC3)cc2)cc1 | 10.2 |
| O=C(COc1ccccc1)N/N=C/c1ccc2c(c1)OCO2 | 8.59 |
| CCC(=O)O[C@]1(C(=O)SCF)[C@H](C)C[C@H]2[C@@H]3C[C@H](F)C4=CC(=O)C=C[C@]4(C)[C@@]3(F)[C@@H](O)C[C@@]21C | 1.93 |
| Cc1n[nH]c(C)c1Sc1ccccc1N=Cc1cc([N+](=O)[O-])ccc1O | -12 |
| CCn1nnnc1SCC(=O)Nc1cccc(C)n1 | 4.72 |
| O=C(/C=C/c1ccc(Cl)cc1)NCCc1ccccc1 | 0.359 |
| COc1cc(/C=C/C(=O)c2ccc(C)c([N+](=O)[O-])c2)cc(OC)c1O | 6.91 |
| Cn1c(SCC(=O)O)nc2sc3c(c2c1=O)CCC3 | 20 |
| Cc1cc(C)c(NC(=S)N2CCCC2C(=O)O)c(C)c1 (centres unmarked) | -3.18 |
| COCCn1c(SCC(=O)Nc2ccc(S(=O)(=O)N3CCOCC3)cc2)nc2ccccc21 | -4.78 |
| O=C(COC(=O)C1CC(=O)N(Cc2ccccc2)C1)Nc1ccc(Cl)cc1F (centres unmarked) | 48.7 |
| Cc1ccc(C2(O)CN(c3ccccc3C)C3=[N+]2CCS3)cc1.[Br-] (centres unmarked) | 10.5 |

| Compound | hERG current change (%, negative = inhibition) at 1uM [%] |
| --- | --- |
| CCOP(=O)(c1ccc(N(C)C)cc1)C(O)c1ccccc1F (centres unmarked) | 12.3 |
| Cc1ccc(C)c(NC(=O)C(C)N2C(=O)c3ccccc3C2=O)c1 (centres unmarked) | 10.8 |
| Cc1ccc(-c2nn(CCC(=O)NC(C)C)c(=O)c3ccccc23)cc1 | 20.7 |
| O=C(NCc1cccc(OC(F)(F)F)c1)C1CCC(=O)N(Cc2cccc(F)c2)C1 (centres unmarked) | -17 |
| CNc1ccc2nc3ccccc3[n+](C)c2c1.[O-][Cl+3]([O-])([O-])[O-] | 11.6 |
| CO/N=C(/C)CCS(=O)(=O)c1ccccc1 | 12.4 |
| O=C(NNS(=O)(=O)c1ccccc1)c1csc(-c2cccnc2)n1 | 9.51 |
| COc1ccc(C(C)NC(=O)c2ccccc2Cl)cc1OC (centres unmarked) | 4.44 |
| COc1cc(C(=S)N2CCOCC2)cc(OC)c1OC(=O)c1ccccc1[N+](=O)[O-] | 14.5 |
| CC(C)C[C@H](NC(=O)c1nc[nH]c1C(=O)N1CCN(c2ccccc2)CC1)C(=O)OCc1ccccc1 | 9.97 |
| Cc1cc(O)c(C(C)C)cc1NC(=O)Cn1nc(C)c2ccccc2c1=O | -6.85 |
| CCOc1cc(/C=C2\NC(=S)N(C)C2=O)ccc1OCc1ccc(C(=O)O)cc1 | 6.12 |
| O=C(c1ccco1)N1N=C(C2CCCCC2)CC1(O)C(F)(F)F (centres unmarked) | 0.504 |
| O=C(Nc1ccc2c(c1)OCCO2)C1CCN(S(=O)(=O)c2ccccc2)CC1 | 13.1 |
| CCCc1cc(=O)oc2c(C)c(OCC(=O)Nc3ccc(CN4CCOCC4)cc3)ccc12 | 9.68 |
| O=C(NC1CCCCC1)c1ccc(CNc2c(N3CCOCC3)c(=O)c2=O)cc1 | 9.75 |
| Cc1cc(C)n(CCCN2C(=O)c3cccc4cccc(c34)C2=O)n1 | 7.6 |
| O=C1C2C(C(=O)N1/N=C/c1cccc([N+](=O)[O-])c1)C1C=CC2C12CC2 (centres unmarked) | 6.68 |
| Cc1onc(-c2ccccc2)c1C(=O)NC(C)C1CCCO1 (centres unmarked) | 4.69 |
| Fc1cccc(C[n+]2csc3ccccc32)c1.[Br-] | 6.39 |
| COCCNC(=S)Nc1ccc2nc(N3CCCC3)cc(C)c2c1 | -50.5 |
| CCCC[C@@H](CNC)NC[C@H](NCCCCC1CCCCC1)C(C)C | 11.2 |
